Laboratory results as given in the supplement of paper PMC8512760.
Some of the results follow. Many values rest on one well or one pass, so single values are uncertain.

test system: HCC-1143; experiment: cell viability relative to vehicle (% of vehicle); basal-like triple-negative breast cancer lines; higher = less cytotoxic; conditions: 10 µM; 72 h
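Note: stably firefly luciferase-GFP labeled cells in 96-well plates, viability read as luciferase photon flux after d-luciferin addition, treated wells normalized to vehicle wells, single-dose high-throughput screen.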

SMILES	cell viability
CCCc1cc(=O)[nH]c(=S)[nH]1 [Propylthiouracil]	86.2
Cl.NC(N)=NC(=O)Cc1c(Cl)cccc1Cl [Guanfacine hydrochloride]	90.8
COc1cccc2c1C(=O)c1c(O)c3c(c(O)c1C2=O)CC(O)(C(=O)CO)CC3OC1CC(N)C(O)C(C)O1.Cl (stereo unspecified) [Epirubicin HCl]	26.2
Cc1ccccc1N1C(=O)c2cc(S(N)(=O)=O)c(Cl)cc2NC1C (stereo unspecified) [Metolazone]	125
C#CCC(Cc1cnc2nc(N)nc(N)c2n1)c1ccc(C(=O)NC(CCC(=O)O)C(=O)O)cc1 (stereo unspecified) [Pralatrexate]	103
CCNC1CN(CCCOC)S(=O)(=O)c2sc(S(N)(=O)=O)cc21 (stereo unspecified) [Brinzolamide]	106
COc1cc2c(cc1OC)CC(=O)N(CCCN(C)CC1Cc3cc(OC)c(OC)cc31)CC2.Cl (stereo unspecified) [Ivabradine HCl]	78
CN1C2CCCC1CC(NC(=O)c1nn(C)c3ccccc13)C2 (stereo unspecified) [Granisetron]	92.3
Oc1c(Br)cc(Br)c2cccnc12 [Broxyquinoline]	40.2
CCOC(=O)C1OC1C(=O)NC(CC(C)C)C(=O)NCCC(C)C (stereo unspecified)	85.5
C=C1CCC(O)CC1=CC=C1CCCC2(C)C1CCC2C(C)C=CC(C)C(C)C (stereo unspecified) [Vitamin D2 (Ergocalciferol)]	72.3
Cc1c(C(=O)Nc2ccc(N3CC(C)OC(C)C3)nc2)cccc1-c1ccc(OC(F)(F)F)cc1 (stereo unspecified) [LDE225 (NVP-LDE225,Erismodegib)]	56.8
CCCCCOc1ccc(-c2ccc(-c3ccc(C(=O)N[C@H]4C[C@@H](O)[C@@H](O)NC(=O)[C@@H]5[C@@H](O)[C@@H](C)CN5C(=O)[C@H]([C@@H](C)O)NC(=O)[C@H]([C@H](O)[C@@H](O)c5ccc(O)cc5)NC(=O)[C@@H]5C[C@@H](O)CN5C(=O)[C@H]([C@@H](C)O)NC4=O)cc3)cc2)cc1 [Anidulafungin]	72.2
CC(=O)OCC(=O)C1(O)CCC2C3CCC4=CC(=O)C=CC4(C)C3C(O)CC21C (stereo unspecified) [Prednisolone Acetate]	91.3
Cl.Nc1c2c(nc3ccccc13)CCCC2 [Tacrine hydrochloride]	58.3
Nc1nccs1 [Aminothiazole]	109
CC#CCn1c(N2CCCC(N)C2)nc2c1c(=O)n(Cc1nc(C)c3ccccc3n1)c(=O)n2C (stereo unspecified) [Linagliptin (BI-1356)]	102
CC(C)(O/N=C(\C(=O)N[C@@H]1C(=O)N2C(C(=O)[O-])=C(C[n+]3ccccc3)CS[C@H]12)c1csc(N)n1)C(=O)O [Ceftazidime]	98.7
O=c1oc2cc(O)ccc2s1 [Tioxolone]	123
CC1(C)O[C@@H]2C[C@H]3[C@@H]4CCC5=CC(=O)C=C[C@]5(C)[C@H]4[C@@H](O)C[C@]3(C)[C@]2(C(=O)CO)O1 [Desonide]	90.7
O=C(O)[C@H](O)[C@@H](O)C(=O)O.c1cnc2cc3c(cc2n1)C1CNC[C@@H]3C1 [Varenicline Tartrate]	108
CCCNS(=O)(=O)Nc1ncnc(OCCOc2ncc(Br)cn2)c1-c1ccc(Br)cc1 [Macitentan]	85.6
NCC1OC(OC2C(N)CC(N)C(OC3OC(CO)C(O)C(N)C3O)C2O)C(O)C(O)C1O.O=S(=O)(O)O (stereo unspecified) [Kanamycin Sulfate]	92.8
COc1cccc2c1C(=O)c1c(O)c3c(c(O)c1C2=O)CC(O)(C(=O)CO)CC3OC1CC(N)C(O)C(C)O1.Cl (stereo unspecified) [Doxorubicin (Adriamycin) HCl]	45.7
CN(C)C(=O)COC(=O)Cc1ccc(OC(=O)c2ccc(N=C(N)N)cc2)cc1.CS(=O)(=O)O [Camostat Mesilate]	80.7
COC1=CC=C(/C(C2=CC=C(OC)C=C2)=C(Cl)/C3=CC=C(OC)C=C3)C=C1 [Chlorotrianisene]	90.3
